Data as given in patent publication US20250043004A1 (Janssen / Centocor, published 2025).

T1: BCMA (human, UniProt Q02223 1-184)
T1 construct: whole, on cells; On NCI-H929 myeloma cells, which also carry CD28; also called B-cell maturation antigen; TNFRSF17
T1 sequence (looked up): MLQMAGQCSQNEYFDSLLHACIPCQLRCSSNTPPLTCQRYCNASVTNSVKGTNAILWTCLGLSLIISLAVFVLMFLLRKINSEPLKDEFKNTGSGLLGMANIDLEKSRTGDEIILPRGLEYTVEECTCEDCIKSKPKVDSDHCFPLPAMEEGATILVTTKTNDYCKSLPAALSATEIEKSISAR


Experiments:
CD28 [1] = target: T2, CD28 (human, UniProt P10747 19-220); test: flow cytometry, human pan T cells
T2 construct: whole, on cells; On human pan T cells and on H929 myeloma cells; the assay field says which; also called Cluster of Differentiation 28

CD28 [2] = target: T2, CD28; test: flow cytometry, human pan T cells, donor 2
CD28 [3] = target: T2, CD28; test: flow cytometry, H929 cells (BCMA+, CD28+); whole-cell EC50, antibody has BCMA and CD28 arms
BCMA = target: T1, BCMA; test: as above

| Binder | EC50 (CD28 [1]) [µg/mL] | EC50 (CD28 [2]) [µg/mL] | EC50 (CD28 [3]) [µg/mL] | EC50 (BCMA) [µg/mL] |
| --- | --- | --- | --- | --- |
| VB28B2 (other, only variable domains are tied; linkers and constant regions are not; also called Vβ28B2) heavy 1: QVQLQQPGSELVRPGASVKLSCKASGYTFTSYWMHWVKQRHGQGLEWIGNIYPGSGRTNYDEKFKSKGTLTVDTSSRTAYMHLSSLTSEDSAVYYCTREHYGSNSHPMDYWGQGTSVTVSSASTKGPSVFPLAPSSKSTSGGTAALGCLVKDYFPEPVTVSWNSGALTSGVHTFPAVLQSSGLYSLSSVVTVPSSSLGTQTYICNVNHKPSNTKVDKKVEPKSCDKTHTCPPCPAPEAAGGPSVFLFPPKPKDTLMISRTPEVTCVVVSVSHEDPEVKFNWYVDGVEVHNAKTKPREEQYNSTYRVVSVLTVLHQDWLNGKEYKCKVSNKALPAPIEKTISKAKGQPREPQVYTLPPSREEMTKNQVSLWCLVKGFYPSDIAVEWESNGQPENNYKTTPPVLDSDGSFFLYSKLTVDKSRWQQGNVFSCSVMHEALHNHYTQKSLSLSPGGGSEGKSSGSGSESKSTGGSDIQMTQSPSSLSASVGDRVTITCRSSQSLVHSSGNTYLHWYQQKPGKAPKFLIYKVSNRFSGVPSRFSGSGSGTDFTLTISSLQPEDFATYYCSQSTHVPFTFGQGTKLEIKGGSEGKSSGSGSESKSTGGSQVQLQESGPGLVKPSETLSLTCTVSGYSITSGYFWNWIRQPPGKGLEWIGYISYDGSNNYNPSLKSRVTISRDTSKNQFSLKLSSVTAADTAVYYCASPSPGTGYAVDYWGQGTLVTVSS light 1: DIQMTQSPASLSASVGETVTITCGASENIYGSLNWYQRKQGKSPQLLIYGATNLADGMSSRFSGSGSGRQFSLKISSLHPDDVATYYCQNLLSTPYTFGGGTKLELKRTVAAPSVFIFPPSDEQLKSGTASVVCLLNNFYPREAKVQWKVDNALQSGNSQESVTEQDSKDSTYSLSSTLTLSKADYEKHKVYACEVTHQGLSSPVTKSFNRGEC heavy 2: QVQLQQPGSELVRPGASVKLSCKASGYTFTSYWMHWVKQRHGQGLEWIGNIYPGSGRTNYDEKFKSKGTLTVDTSSRTAYMHLSSLTSEDSAVYYCTREHYGSNSHPMDYWGQGTSVTVSSASTKGPSVFPLAPSSKSTSGGTAALGCLVKDYFPEPVTVSWNSGALTSGVHTFPAVLQSSGLYSLSSVVTVPSSSLGTQTYICNVNHKPSNTKVDKKVEPKSCDKTHTCPPCPAPEAAGGPSVFLFPPKPKDTLMISRTPEVTCVVVSVSHEDPEVKFNWYVDGVEVHNAKTKPREEQYNSTYRVVSVLTVLHQDWLNGKEYKCKVSNKALPAPIEKTISKAKGQPREPQVYTLPPSREEMTKNQVSLSCAVKGFYPSDIAVEWESNGQPENNYKTTPPVLDSDGSFFLVSKLTVDKSRWQQGNVFSCSVMHEALHNRFTQKSLSLSPGGGSEGKSSGSGSESKSTGGSEIVLTQSPGTLSLSPGERATLSCRASQSISSSFLTWYQQKPGQAPRLLIYGASSRATGIPDRFSGGGSGTDFTLTISRLEPEDFAVYYCQHYGSSPMYTFGQGTKLEIKGGSEGKSSGSGSESKSTGGS[about 100 residues not spelt out]DEGYSSGHYYGMDVWGQGTTVTVSS light 2: DIQMTQSPASLSASVGETVTITCGASENIYGSLNWYQRKQGKSPQLLIYGATNLADGMSSRFSGSGSGRQFSLKISSLHPDDVATYYCQNLLSTPYTFGGGTKLELKRTVAAPSVFIFPPSDEQLKSGTASVVCLLNNFYPREAKVQWKVDNALQSGNSQESVTEQDSKDSTYSLSSTLTLSKADYEKHKVYACEVTHQGLSSPVTKSFNRGEC | 0.06 | – | – | – |
| VB28B35 (other, Trispecific antibody Vβ17 × CD28 × BCMA, human IgG1; also called Vβ28B35) scFv: DIQMTQSPSSLSASVGDRVTITCRSSQSLVHSSGNTYLHWYQQKPGKAPKFLIYKVSNRFSGVPSRFSGSGSGTDFTLTISSLQPEDFATYYCSQSTHVPFTFGQGTKLEIKGGSEGKSSGSGSESKSTGGSQVQLQESGPGLVKPSETLSLTCTVSGYSITSGYFWNWIRQPPGKGLEWIGYISYDGSNNYNPSLKSRVTISRDTSKNQFSLKLSSVTAADTAVYYCASPSPGTGYAVDYWGQGTLVTVSSEPKSSDKTHTCPPCPAPEAAGGPSVFLFPPKPKDTLMISRTPEVTCVVVSVSHEDPEVKFNWYVDGVEVHNAKTKPREEQYNSTYRVVSVLTVLHQDWLNGKEYKCKVSNKALPAPIEKTISKAKGQPREPQVYTLPPSREEMTKNQVSLWCLVKGFYPSDIAVEWESNGQPENNYKTTPPVLDSDGSFFLYSKLTVDKSRWQQGNVFSCSVMHEALHNHYTQKSLSLSPGK heavy: QVQLQQPGSELVRPGASVKLSCKASGYTFTSYWMHWVKQRHGQGLEWIGNIYPGSGRTNYDEKFKSKGTLTVDTSSRTAYMHLSSLTSEDSAVYYCTREHYGSNSHPMDYWGQGTSVTVSSASTKGPSVFPLAPSSKSTSGGTAALGCLVKDYFPEPVTVSWNSGALTSGVHTFPAVLQSSGLYSLSSVVTVPSSSLGTQTYICNVNHKPSNTKVDKKVEPKSCDKTHTCPPCPAPEAAGGPSVFLFPPKPKDTLMISRTPEVTCVVVSVSHEDPEVKFNWYVDGVEVHNAKTKPREEQYNSTYRVVSVLTVLHQDWLNGKEYKCKVSNKALPAPIEKTISKAKGQPREPQVYTLPPSREEMTKNQVSLSCAVKGFYPSDIAVEWESNGQPENNYKTTPPVLDSDGSFFLVSKLTVDKSRWQQGNVFSCSVMHEALHNRFTQKSLSLSPGK light: EIVLTQSPGTLSLSPGERATLSCRASQSISSSFLTWYQQKPGQAPRLLIYGASSRATGIPDRFSGGGSGTDFTLTISRLEPEDFAVYYCQHYGSSPMYTFGQGTKLEIKGGSEGKSSGSGSESKSTGGS[about 100 residues not spelt out]DEGYSSGHYYGMDVWGQGTTVTVSSGGSEGKSSGSGSESKSTGGSDIQMTQSPASLSASVGETVTITCGASENIYGSLNWYQRKQGKSPQLLIYGATNLADGMSSRFSGSGSGRQFSLKISSLHPDDVATYYCQNLLSTPYTFGGGTKLELKRTVAAPSVFIFPPSDEQLKSGTASVVCLLNNFYPREAKVQWKVDNALQSGNSQESVTEQDSKDSTYSLSSTLTLSKADYEKHKVYACEVTHQGLSSPVTKSFNRGEC | – | > 10 | < 0.0046 | < 0.0046 |
| VB28B39 (other, Trispecific antibody BCMA × CD28 × Vβ17, human IgG1; also called Vβ28B39) scFv: EIVLTQSPGTLSLSPGERATLSCRASQSISSSFLTWYQQKPGQAPRLLIYGASSRATGIPDRFSGGGSGTDFTLTISRLEPEDFAVYYCQHYGSSPMYTFGQGTKLEIKGGSEGKSSGSGSESKSTGGS[about 100 residues not spelt out]DEGYSSGHYYGMDVWGQGTTVTVSSEPKSSDKTHTCPPCPAPEAAGGPSVFLFPPKPKDTLMISRTPEVTCVVVSVSHEDPEVKFNWYVDGVEVHNAKTKPREEQYNSTYRVVSVLTVLHQDWLNGKEYKCKVSNKALPAPIEKTISKAKGQPREPQVYTLPPSREEMTKNQVSLWCLVKGFYPSDIAVEWESNGQPENNYKTTPPVLDSDGSFFLYSKLTVDKSRWQQGNVFSCSVMHEALHNHYTQKSLSLSPGK heavy: QVQLQQPGSELVRPGASVKLSCKASGYTFTSYWMHWVKQRHGQGLEWIGNIYPGSGRTNYDEKFKSKGTLTVDTSSRTAYMHLSSLTSEDSAVYYCTREHYGSNSHPMDYWGQGTSVTVSSASTKGPSVFPLAPSSKSTSGGTAALGCLVKDYFPEPVTVSWNSGALTSGVHTFPAVLQSSGLYSLSSVVTVPSSSLGTQTYICNVNHKPSNTKVDKKVEPKSCDKTHTCPPCPAPEAAGGPSVFLFPPKPKDTLMISRTPEVTCVVVSVSHEDPEVKFNWYVDGVEVHNAKTKPREEQYNSTYRVVSVLTVLHQDWLNGKEYKCKVSNKALPAPIEKTISKAKGQPREPQVYTLPPSREEMTKNQVSLSCAVKGFYPSDIAVEWESNGQPENNYKTTPPVLDSDGSFFLVSKLTVDKSRWQQGNVFSCSVMHEALHNRFTQKSLSLSPGK light: DIQMTQSPSSLSASVGDRVTITCRSSQSLVHSSGNTYLHWYQQKPGKAPKFLIYKVSNRFSGVPSRFSGSGSGTDFTLTISSLQPEDFATYYCSQSTHVPFTFGQGTKLEIKGGSEGKSSGSGSESKSTGGSQVQLQESGPGLVKPSETLSLTCTVSGYSITSGYFWNWIRQPPGKGLEWIGYISYDGSNNYNPSLKSRVTISRDTSKNQFSLKLSSVTAADTAVYYCASPSPGTGYAVDYWGQGTLVTVSSGGSEGKSSGSGSESKSTGGSDIQMTQSPASLSASVGETVTITCGASENIYGSLNWYQRKQGKSPQLLIYGATNLADGMSSRFSGSGSGRQFSLKISSLHPDDVATYYCQNLLSTPYTFGGGTKLELKRTVAAPSVFIFPPSDEQLKSGTASVVCLLNNFYPREAKVQWKVDNALQSGNSQESVTEQDSKDSTYSLSSTLTLSKADYEKHKVYACEVTHQGLSSPVTKSFNRGEC | – | > 10 | 0.0167 | 0.0167 |
